Screen size: about 310,000 compounds; about 2,200 (0.71%) showed an effect of 50% or more. Effects have a minus sign here. The list shows a part of the results.

Chain of human ether-à-go-go-related gene (hERG) potassium channel (Q12809 whole entry, looked up): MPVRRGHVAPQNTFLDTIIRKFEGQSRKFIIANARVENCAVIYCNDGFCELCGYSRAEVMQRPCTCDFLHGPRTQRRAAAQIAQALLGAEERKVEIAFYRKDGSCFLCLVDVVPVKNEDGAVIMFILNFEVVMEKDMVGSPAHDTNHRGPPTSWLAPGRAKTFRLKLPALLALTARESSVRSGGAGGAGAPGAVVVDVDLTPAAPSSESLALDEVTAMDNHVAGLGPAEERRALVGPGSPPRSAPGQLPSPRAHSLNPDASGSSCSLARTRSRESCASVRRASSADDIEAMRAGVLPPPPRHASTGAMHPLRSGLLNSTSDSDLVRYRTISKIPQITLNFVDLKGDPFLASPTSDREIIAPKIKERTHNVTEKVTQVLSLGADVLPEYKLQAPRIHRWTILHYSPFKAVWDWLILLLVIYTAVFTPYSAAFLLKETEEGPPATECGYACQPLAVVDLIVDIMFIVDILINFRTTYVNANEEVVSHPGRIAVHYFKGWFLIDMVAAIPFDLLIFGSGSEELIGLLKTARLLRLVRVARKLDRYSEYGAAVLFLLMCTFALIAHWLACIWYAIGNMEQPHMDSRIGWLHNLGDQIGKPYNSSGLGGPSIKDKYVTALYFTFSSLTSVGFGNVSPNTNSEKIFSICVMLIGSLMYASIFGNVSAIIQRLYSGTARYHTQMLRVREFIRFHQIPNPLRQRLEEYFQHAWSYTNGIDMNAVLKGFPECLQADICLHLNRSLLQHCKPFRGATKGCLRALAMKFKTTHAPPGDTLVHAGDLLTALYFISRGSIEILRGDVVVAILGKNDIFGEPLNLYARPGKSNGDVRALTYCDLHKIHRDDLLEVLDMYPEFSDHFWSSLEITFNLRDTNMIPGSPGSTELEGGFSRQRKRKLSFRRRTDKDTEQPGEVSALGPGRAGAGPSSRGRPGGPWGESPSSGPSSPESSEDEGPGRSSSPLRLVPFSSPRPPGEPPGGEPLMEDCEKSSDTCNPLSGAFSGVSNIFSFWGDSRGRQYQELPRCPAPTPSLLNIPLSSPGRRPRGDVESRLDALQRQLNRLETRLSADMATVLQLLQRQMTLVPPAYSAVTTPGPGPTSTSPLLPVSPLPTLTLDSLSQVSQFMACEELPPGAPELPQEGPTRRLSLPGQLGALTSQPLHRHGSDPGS

This experiment addresses human ether-à-go-go-related gene (hERG) potassium channel (human, UniProt Q12809). Nature of the experiment: primary screen, population patch clamp on CHO cells stably expressing hERG.
Take `Cc1c(Cl)cccc1NC(=S)NCc1ccc(F)cc1`: the “hERG current change (%, negative = inhibition) at 1uM” value is recorded as 8.43%.

As for `CSc1ccccc1OCc1cc(C(=O)N(C)CCn2nc(C)cc2C)no1`, the “hERG current change (%, negative = inhibition) at 1uM” value came to 8.12%. As for `COc1ccc(/C=C/C(=O)c2nc3ccccc3n2CC(=O)c2ccc(OC)cc2)cc1`, the figure is 10.6%; as for `CCCCc1ccc(-c2nc(-c3ccncc3)no2)cc1`, 11.2%. For `Cc1ccccc1-c1nc(CN2CCSCC2)c(C)o1`, the “hERG current change (%, negative = inhibition) at 1uM” value is 3.9%. The value for `CN(CC(=O)Nc1ccccc1Br)C(=O)c1cc(Cl)nc2ccccc12` was 9.63%; that for `CCCN(Cc1cc(=O)[nH]c2ccccc12)C(=O)CC` was 18.9%; that for `CCOCCCNC(=O)c1ccccc1OC1CCN(S(C)(=O)=O)CC1` was 11.9%. As to `S=C(Nc1cccc(Br)c1)c1ccccc1`, the “hERG current change (%, negative = inhibition) at 1uM” value was found to be 2.88%. The value for `CCC(=O)N1CCN(c2ccccc2NC(=O)COc2cccc(C)c2)CC1` was 6.78%; that for `Br.Cc1ccc(C(=O)Cn2c(NCCO)nc3ccccc32)cc1` was 0.73%; that for `Cc1ccc(-c2nnc(SCC(=O)N/N=C/c3cccs3)n2-c2ccc(C)cc2)cc1` was 6.21%. The value for `COc1ccc(OCCC(=O)N2CCOCC2)cc1` was 10.9%; that for `O=c1oc2ccccc2c(N2CCCC2)c1[N+](=O)[O-]` was 1.12%; that for `CCC(=O)Nc1nnc(S(=O)(=O)N2CCCc3ccccc32)s1` was 11.4%. The value for `Nc1n[nH]c(N)c1N=Nc1ccc2c(c1)OCO2` was 12.5%; that for `COc1ccc2c(c1)OC[C@H]1[C@H]2N2C(=O)[C@H](C)NC(=O)[C@@]2(C)[C@H]1c1ccccc1` was 19.2%. On to `CCCCn1cnc(C(=O)OCC)c1N`, for which the “hERG current change (%, negative = inhibition) at 1uM” value was determined as 4.92%. The value for `CNC(=S)N(Cc1ccc(OC)cc1)Cc1cc2cc(C)ccc2[nH]c1=O` was 15.3%; that for `COc1ccccc1N1CCN(C(c2ccccn2)c2nnnn2C2CCCCC2)CC1` (centres unmarked) was 0.0559%; that for `CC(N)C(=O)NC(C(=O)N1CCCC1C(=O)NC(c1ccccc1)c1ccccc1)C(C)C.O=C(O)C(F)(F)F` (centres unmarked) was 7.48%. As for `Cn1nc(C(=O)N2CCC(C(N)=O)CC2)c2c1-c1ccccc1SC2`, the figure is 4.04%.

As for `COc1ccc2sc(NC(=O)CC(C)C)nc2c1`, the “hERG current change (%, negative = inhibition) at 1uM” value was found to be 8.55%. As for `CCOCc1nnc(NC(=O)c2cc(C(=O)OC)cc([N+](=O)[O-])c2)s1`, the figure is 13.7%; as for `CCN(CC)CCN(Cc1cc2cc3c(cc2[nH]c1=O)OCO3)C(=S)NCCCN(C)C`, 19.6%.

In the case of `CC[C@]1(O)C[C@@H]2CN(CCc3c([nH]c4ccccc34)[C@@](C(=O)OC)(c3cc4c(cc3OC)N(C)[C@H]3[C@@](O)(C(=O)OC)[C@H](OC(C)=O)[C@]5(CC)C=CCN6CC[C@]43[C@@H]65)C2)C1.O=S(=O)(O)O`, the “hERG current change (%, negative = inhibition) at 1uM” value turned out to be 5.47%. The value for `CCOc1ccc(-c2[nH]ncc2-c2csc(C)n2)c(O)c1` was -2.34%; that for `CCOC(=O)C(=CNc1ccc(-c2ccco2)c(Cl)c1)C(=O)OCC` was 9.73%. The value for `CCn1nnnc1NC(=O)c1cc(OC)c(OC)c(OC)c1` was -0.215%; that for `CCN1C(=O)/C(=C/N2CCc3ccccc32)SC1=S` was 13.9%. Turning to `CN(CC12CC3CC(CC(C3)C1)C2)C(=O)c1ccco1`, the “hERG current change (%, negative = inhibition) at 1uM” value came to 2.84%. As for `Cc1cc(NC(=O)CN2C(=O)NC(c3ccccc3)(c3ccc(C)c(C)c3)C2=O)no1` (centres unmarked), the figure is -10.9%; as for `O=C(c1ccc(-c2ccccc2Cl)o1)N1CCCC(C(F)(F)F)C1` (centres unmarked), 13.2%; as for `Cc1cc(C)n(CCOc2ccc(Br)cc2)n1`, 6.58%. For `Cc1cc(C)c(-c2csc(NC(=O)c3cc([N+](=O)[O-])ccc3N3CCOCC3)n2)c(C)c1`, the “hERG current change (%, negative = inhibition) at 1uM” value is reported as -1.74%.

Consider `CCc1nnc(NC(=O)CN2CCN(c3cccc(OC)c3)CC2)s1`, for which the “hERG current change (%, negative = inhibition) at 1uM” value was 2.37%. Consider `COc1ccc2c(c1)c(=O)c(C(=O)c1ccccc1)cn2Cc1ccc(C)cc1`, for which the “hERG current change (%, negative = inhibition) at 1uM” value is on record as -0.852%. The value for `CCN1CCN(C(=O)C2CCN(c3nnc(C)c4c(C)n(-c5ccc(C)cc5)nc34)CC2)CC1` was 13.4%; that for `CC(C)C1CC(C(F)(F)F)n2nc(C(=O)O)cc2N1` (centres unmarked) was 12.9%; that for `Cc1ccc2cc(C(c3nnnn3C3CCCC3)N(Cc3ccccc3)Cc3ccco3)c(=O)[nH]c2c1` (centres unmarked) was 12.1%. The value for `CCn1c(CCNC(=O)c2cccs2)nnc1SCC(=O)Nc1ccc(Cl)cc1` was -16%; that for `Cc1ccc(CN2CCN(/N=C/c3ccccc3)CC2)cc1` was 2.28%.

Consider `O=C(N/N=C/c1coc2ccc(Cl)cc2c1=O)c1ccc(O)cc1`, for which the “hERG current change (%, negative = inhibition) at 1uM” value is listed as 11.4%.

On to `C=CCc1ccccc1OCC(O)CN1CCN(c2ccccc2F)CC1.Cl` (centres unmarked), for which the “hERG current change (%, negative = inhibition) at 1uM” value was -0.42%. The value for `CC1(c2ccc(Cl)cc2)NC(=O)N(CC(=O)c2ccc3c(c2)OCO3)C1=O` (centres unmarked) was 4.44%; that for `O=C(NCc1ccco1)c1ccc(=O)[nH]n1` was 7.66%. As for `Cn1c(O)c(C=Nc2ccc(Cl)cc2)c(=O)n(C)c1=O`, the figure is 13.9%; as for `CCOC(=O)Cn1nc(-c2ccc(Cl)cc2)cc1N`, -6.18%; as for `O=S(=O)(Nc1ccccn1)c1cccs1`, 20.2%. As for `CCN1CCSc2ccc(C(=O)NCc3ccc(OC(C)C)cc3)cc21`, the figure is 13%; as for `Cc1cccc(NC(=O)CSc2nnc(-c3ccco3)o2)c1`, 16.2%. On to `Cc1nc(N2CCC(C)CC2)c(C#N)c(C)c1[N+](=O)[O-]`, for which the “hERG current change (%, negative = inhibition) at 1uM” value was determined as 9.99%. The value for `CCN(CC)CCN(Cc1cc2ccc(C)cc2[nH]c1=O)C(=O)NC1CCCCC1` was -23.9%; that for `Cc1cc(C)c(NC(=O)COC(=O)CCn2c(C)csc2=O)c(C)c1` was 0.656%. For the molecule `O=C(NCc1cccs1)c1cccnc1SCCS(=O)(=O)c1ccc(C(F)(F)F)cn1`, the “hERG current change (%, negative = inhibition) at 1uM” value was 4.76%.

On to `CCCn1cc(CN2CCC(Cc3cccc(F)c3)(C(=O)OCC)CC2)c(C)n1`, for which the “hERG current change (%, negative = inhibition) at 1uM” value is recorded as -60.3%. As for `S=C(Nc1ccccc1)N1N=CCC1c1ccccc1` (centres unmarked), the figure is -17.1%; as for `COc1ccc(C(=O)N2CCn3c2nc2ccccc23)cc1`, 6.48%. The value for `CCNc1nc(NC(C)C)nc(Oc2ccc(OCCOc3ccccc3)nn2)n1` was 9.17%; that for `O=C(CCCC1=NS(=O)(=O)c2ccccc2N1)N1CCN(c2ccc(Cl)cc2)CC1` was -15.7%; that for `O=C(O)/C=C/C(=O)NNC(=O)c1ccc(Br)cc1` was 14.9%. The value for `NNC(=O)c1cc(O)c(O)c(O)c1` was 16.9%. `CC(C)NC(=O)COC(=O)c1cc(F)c(F)cc1Cl`: the “hERG current change (%, negative = inhibition) at 1uM” value is reported as 16.3%. As for `CCSc1nnc(-c2ccncc2)o1`, the figure is 24.6%; as for `COc1ccc(C(=O)O)cc1S(=O)(=O)N(C)CCc1ccccn1`, 16.3%; as for `O=C(O)C1CCCCN1C(=O)c1ccc(S(=O)(=O)N2CCCCCC2)cc1` (centres unmarked), 13.6%. For `O=c1oc(-c2ccccc2)nc2sc3c(c12)CCC3`, the “hERG current change (%, negative = inhibition) at 1uM” value turned out to be 7.52%. The value for `CCOC(=O)Cc1csc(NC(=O)CSc2nnnn2-c2ccc(F)cc2)n1` was -4.09%; that for `C=CCNC(=O)C1CCN(S(=O)(=O)c2ccccc2)CC1` was 5.99%.

As for `O=C(Nc1c2c(nn1-c1ccc(Cl)cc1)CS(=O)(=O)C2)C1CC1`, the “hERG current change (%, negative = inhibition) at 1uM” value is on record as 1.67%.

On to `O=S(=O)(Nc1ccc(N2CCOCC2)cc1)c1ccc(F)cc1`, for which the “hERG current change (%, negative = inhibition) at 1uM” value is listed as 9.97%. As to `N/C(=N\OC(=O)Nc1ccccc1)c1ncc(C(F)(F)F)cc1Cl`, the “hERG current change (%, negative = inhibition) at 1uM” value came out at 5.81%. As for `COc1cccc2c1C(=O)C[C@]1(CCCC[C@@H]1C)O2`, the figure is 10.6%; as for `CCN1CCN(c2ccc(S(=O)(=O)N3CCOCC3)cc2NC(=O)/C=C/c2ccc(OC)cc2OC)CC1`, 9.63%. With `CCCCn1c(N)c(N(CCOC)C(=O)CSc2n[nH]c(-c3ccc(C)cc3)n2)c(=O)[nH]c1=O`, the “hERG current change (%, negative = inhibition) at 1uM” value turned out to be 5.19%. As for `O=C(CCn1c(=O)sc2ccccc21)Nc1cccnc1`, the figure is 7.23%. The value for `Cc1nnc(NC(=O)c2ccc3ccccc3n2)s1` was 3.67%. The value for `Fc1ccc(C(CCNCc2ccccn2)c2ccc(Cl)cc2)cc1` (centres unmarked) was -41.6%; that for `Cc1nn(C)c(Oc2cccc(Cl)c2)c1C(=O)Nc1ccc(F)cc1F` was 2.77%; that for `COc1ccccc1NS(=O)(=O)c1cccc(N=C2N=C(N)c3ccccc32)c1` was 14.6%.

`COCCN(Cc1cn(C)nc1-c1ccccc1F)C(C)C`: the “hERG current change (%, negative = inhibition) at 1uM” value is reported as 16.1%.

As for `O=C(Nc1ccc(O)c(-c2nc3ccccc3o2)c1)C1(c2ccc([N+](=O)[O-])cc2)CCCC1`, the “hERG current change (%, negative = inhibition) at 1uM” value is given as 5.46%. As for `COc1cccc(OCCCCCCN2CCOCC2)c1`, the figure is 1.95%; as for `O=C(N/N=C/c1ccccc1[N+](=O)[O-])c1ccc2c(c1)OCCO2`, 3.5%; as for `COc1cc(NS(=O)(=O)c2c(C)[nH]c(C)c2C(=O)N2CCCCC2)cc(OC)c1OC`, 2.75%.

As to `Cl.Fc1cccc(Cl)c1CNCc1ccccc1Cl`, the “hERG current change (%, negative = inhibition) at 1uM” value was -9.98%. The value for `Cc1ccc(NS(=O)(=O)c2ccc3c(c2)oc(=O)n3C)cc1C` was 11.2%; that for `CC(c1nc2ccccc2c(=O)[nH]1)N(C)c1ccc2ccccc2c1` (centres unmarked) was 5.34%. As for `Cc1ccccc1NC(=O)CN1CCC(n2nnc3ccccc32)CC1`, the figure is -12.1%.

The values are drawn from publication PMC4336329 (PLoS ONE, 2015).
